According to the supplement of paper PMC3334620:
The full ranking holds about 33,000 sequences; the median of “E-score (-0.5 to 0.5)” is about -0.054, and the highest 2% start at about 0.35. This is one part of the list.

Target: T1, Stb5 (UniProt P38699)
T1 sequence: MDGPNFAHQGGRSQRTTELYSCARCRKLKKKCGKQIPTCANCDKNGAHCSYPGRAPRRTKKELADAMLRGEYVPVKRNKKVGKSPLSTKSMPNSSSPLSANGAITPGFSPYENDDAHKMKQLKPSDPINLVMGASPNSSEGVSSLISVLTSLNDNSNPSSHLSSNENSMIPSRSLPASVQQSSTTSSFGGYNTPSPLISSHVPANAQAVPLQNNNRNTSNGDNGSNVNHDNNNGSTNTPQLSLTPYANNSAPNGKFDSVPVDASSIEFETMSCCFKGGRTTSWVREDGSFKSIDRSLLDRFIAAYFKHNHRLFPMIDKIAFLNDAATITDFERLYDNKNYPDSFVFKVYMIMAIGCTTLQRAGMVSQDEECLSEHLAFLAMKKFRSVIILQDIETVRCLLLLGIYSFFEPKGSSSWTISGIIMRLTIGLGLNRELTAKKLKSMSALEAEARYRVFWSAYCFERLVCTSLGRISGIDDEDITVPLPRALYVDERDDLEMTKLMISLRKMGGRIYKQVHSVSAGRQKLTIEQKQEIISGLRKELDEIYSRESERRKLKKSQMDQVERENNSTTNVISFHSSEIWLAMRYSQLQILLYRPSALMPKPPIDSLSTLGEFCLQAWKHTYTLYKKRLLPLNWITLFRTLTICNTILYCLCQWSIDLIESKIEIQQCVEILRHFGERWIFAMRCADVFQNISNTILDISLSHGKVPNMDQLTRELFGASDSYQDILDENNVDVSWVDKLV
Test: PBM E-score (8-mer binding enrichment) (E-score (-0.5 to 0.5)); higher = stronger / more preferred TF binding; most listed sequences are background and not binding sites
Conditions: protein concentration: 200 nM; construct: GST-full length
Summary of the method: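 Full-length yeast transcription factors or their DNA-binding domains, GST-tagged and expressed with PURExpress, were applied at about 100-200 nM to universal all-10-mer Agilent arrays. These arrays had been made double-stranded by primer extension on fresh or once-stripped slides. Detection used fluorescent anti-GST, normalisation used masliner, and E-scores for ungapped eight-base words pooled with reverse complements came from the Universal PBM Analysis Suite.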

Row | Sequence | PBM E-score
1 | ACTTCAAC | 0.00725
2 | AATCACCC | -0.132
3 | GCTGTAAC | -0.0068
4 | AGAGGGGC | -0.192
5 | AAAGATAC | -0.0426
6 | ACCGCCTC | 0.313
7 | ACAGATCT | -0.27
8 | AAGGTCGC | 0.118
9 | CTATTCAG | -0.222
10 | AAGGCAAC | -0.0794
11 | CAGATTTA | 0.0385
12 | ACGGGACA | 0.151
13 | GCCCAAGA | -0.114
14 | AAGATCCT | -0.223
15 | AATTGAGG | -0.193
16 | ATATATCA | 0.0402
17 | ACCAAACT | -0.18
18 | ACCATGAA | -0.105
19 | GTGCATAA | 0.0658
20 | GTGGTCCA | -0.249
21 | ATGCCAGA | -0.121
22 | CGGGCGCC | 0.0407
23 | AGTTGGCC | -0.13
24 | GCTTCCAC | -0.109
25 | AAATCGTG | -0.0622

Row | Sequence | PBM E-score
26 | GTGAAAGA | 0.135
27 | TACCGCGA | 0.324
28 | AGTAGTTG | -0.0997
29 | CTGACCTC | -0.129
30 | CACCTCAC | -0.0496
31 | ATCAGAAG | -0.0945
32 | AGGCAGCG | 0.0612
33 | GCCGGACC | 0.281
34 | CTTGTATC | -0.0468
35 | TGAGTGAA | -0.173
36 | GATGTCCA | -0.0983
37 | CAAGGAAG | -0.0845
38 | GAGATACC | 0.168
39 | ATCCCTTG | 0.0142
40 | GTAGGGCA | -0.219
41 | CATGAGAG | -0.195
42 | ACCCTCGC | -0.0357
43 | ATACAATA | 0.121
44 | GTGGATCA | -0.185
45 | ACACCTCC | 0.0978
46 | AGGCGTTG | -0.11
47 | CTGATGAC | -0.108
48 | ACCAATCT | -0.094
49 | GCGGATGA | 0.165
50 | AAGCAACT | -0.0296

Row | Sequence | PBM E-score
51 | CTATCGCC | 0.135
52 | AACCTCCC | -0.0946
53 | GGAATTTA | 0.196
54 | CAGATTCC | -0.00417
55 | CCGTTAGC | 0.217
56 | CGCTAATC | -0.0307
57 | AAAAAACG | -0.00301
58 | CGCTTCAG | -0.139
59 | GCACCTCA | -0.199
60 | CATCTTAA | -0.0664
61 | AAATGACG | 0.0417
62 | CGAGGTAG | -0.00864
63 | CTCAACGC | -0.0495
64 | AACCTGAG | -0.0916
65 | AGTGCATC | -0.162
66 | ACAACCCA | -0.072
67 | AAGGCGGA | 0.292
68 | GTAGTTGA | -0.129
69 | CGTCGACG | 0.17
70 | AAGGGAGG | -0.0939
71 | ACGTTATA | 0.0232
72 | CCAGGATA | -0.244
73 | CATGCGGA | 0.167
74 | ACACACAG | -0.0846
75 | AGTGCACC | -0.129

Row | Sequence | PBM E-score
76 | GTCTACTA | -0.174
77 | ACAACGGC | 0.141
78 | ATGATGAG | -0.202
79 | CAGCACGC | -0.192
80 | CGCACCCA | -0.00867
81 | ACGGGGTC | 0.362
82 | ATTCAGCC | -0.129
83 | ATCCCACA | -0.215
84 | ACGGCGCA | 0.177
85 | GGTGTAAC | 0.381
86 | CGAAAGAC | -0.00706
87 | ACATGAGG | -0.0362
88 | CATTAGTC | 0.0928
89 | ACCGTTGG | 0.179
90 | CTTTTACA | 0.103
91 | GCAGGCCA | -0.0621
92 | AGGGTCTA | -0.0622
93 | GAATATGA | -0.0764
94 | CCCAAACG | -0.0918
95 | GAAAGAGC | -0.135
96 | CCCACGGC | 0.176
97 | ATGCACGG | 0.178
98 | AAGGTAGG | -0.0169
99 | AAACACTG | -0.241
100 | AACGGTCT | 0.213

Row | Sequence | PBM E-score
101 | TGGTGAAA | 0.0708
102 | GGACGCCC | 0.0973
103 | CAGGTCAA | -0.121
104 | CGATCATA | -0.052
105 | GAGGAAAA | -0.0362
106 | CCAGGTCG | -0.238
107 | TAAAACCA | -0.106
108 | ACGCGCTA | -0.08
109 | ATCTGCGC | 0.0281
110 | GCATGCAA | 0.0662
111 | CAGGCAAG | -0.156
112 | CTTCAGTA | -0.125
113 | CTGCAGCA | -0.157
114 | CGCCGCCC | 0.352
115 | ACGACACT | -0.0454
116 | AGCCCATC | -0.171
117 | ACAGTCGC | -0.126
118 | GGGCAGCA | -0.192
119 | CCGACCAA | 0.228
120 | AGGCTCGA | -0.165
121 | CCACTCTC | -0.0624
122 | CTGTCGAC | -0.0459
123 | GTTAATAA | 0.138
124 | GCAAGACA | 0.0211
125 | TGGCCCAA | -0.151

Row | Sequence | PBM E-score
126 | CCACGGCG | 0.304
127 | CCGGTGGA | 0.21
128 | AGTGATTG | -0.118
129 | ACGAGTGG | -0.163
130 | ATTCTAGA | -0.117
131 | ACGTCGTA | -0.102
132 | ATCGCAGA | -0.152
133 | ACTAAGCG | 0.0755
134 | ACCCTAAC | 0.101
135 | GTGAGTGA | -0.2
136 | GACTACAC | -0.0555
137 | AATGATAG | -0.00794
138 | ATCGTTTG | -0.205
139 | GCCAAAGC | -0.0229
140 | TACCGACA | 0.356
141 | AAATGGTC | -0.019
142 | AAAGCCAT | -0.188
143 | CGCATTCC | 0.00521
144 | ATCTCAGC | -0.0916
145 | AACATCAG | -0.13
146 | CACGGCAA | 0.174
147 | CACAGGGC | -0.0583
148 | CGTGCCCA | -0.111
149 | TACGGAAA | 0.0885
150 | GGGTCTAC | 0.178

Row | Sequence | PBM E-score
151 | GGTCAGGA | -0.102
152 | CTGTTAGA | -0.105
153 | CTTCCTAC | -0.111
154 | GGATAGCA | -0.0723
155 | CTAACTTA | 0.00936
156 | GCACCTGC | -0.0186
157 | ATAGTGTG | -0.0725
158 | GAACCAGC | -0.231
159 | CACGGATC | 0.256
160 | ACCTAAAT | 0.0871
161 | TGTCAGAA | -0.188
162 | ACGTTGAA | -0.0556
163 | ATGCAACC | -0.0387
164 | GCTACAAA | -0.152
165 | CACTATTC | -0.0554
166 | AAGGATGA | -0.167
167 | CATGCACG | -0.0439
168 | AAGTTCGG | 0.251
169 | AAGAGATG | -0.239
170 | CTGGACCA | -0.0639
171 | ACACTTGG | -0.0843
172 | GGTGCCAA | 0.163
